Assay results as given in the supplement of paper PMC10126150.
Sequences with one replicate were seen in a single cluster, so their values are uncertain.

Tested on: ATP
Assay: switch fluorescence ratio, 500 uM ATP over buffer (Cy3 cluster intensity, sum of 5 cycles each) (fold (ratio)); higher = stronger signal-on switching upon ATP binding; sequences stand for … in TCGTCGGCAGCGTCAGATGTGTATAAGAGACAGTTTTTTTTTTTTTTTTTTTTTTTTT…TC
Details: aptamer strand: ATP DNA aptamer (quencher-CACCTGGGGGAGTATTGCGGAGGAAGG + anchor), 100 nM annealed; ATP concentration: 500 uM; one replicate
Method in brief: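 Between each of five buffer/ATP cycles, the flow-cell was stripped with NaOH and re-annealed. Each cycle imaged Cy3-labelled switching-strand clusters, annealed to 100 nM quencher-labelled ATP aptamer on a modified Illumina MiSeq flow-cell, first in selection buffer and then after 15 min with 500 uM ATP at 22 °C. The fluorescence ratio is summed target-cycle over summed buffer-cycle Cy3 intensity per cluster, averaged per switch-domain sequence, with clusters outside 100-1000 RFU excluded.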
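Further: ATP exposure 15 min at 22 °C before imaging.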

Sequence | switch fluorescence ratio
TACACCTTGT | 1
TACTCGCCCT | 1.58
GATATAATAG | 1
GCTGATACGA | 1.3
TCGGCCGATG | 1.02
CAACCCCACA | 1.16
TGTTTAACGA | 1.01
GCAACGAGTC | 1.04
ACTGCAATTT | 1.2
CCATAGACAG | 1.02
GGTTTAAGT | 1.02
ACGGGAATCT | 1.03
TGAGACCGTA | 0.947
CGACCAATGT | 2.2
ATCGGACGGC | 1.08
GGAATATCAT | 0.997
CTAGTTTGTC | 0.953
CTTTTGTACC | 1.01
TCGATAGGAG | 1.02
AAAGAAAACC | 1.24
TGCAGGACGC | 1.08
ATTAGAGCGA | 1.04
TATTGTGGC | 1
GTTTCGGTGC | 1.01
AAGAATAGGT | 0.997
AATCTCCTTA | 1.01

Sequence | switch fluorescence ratio
CACGGGATTG | 1.14
CGAACCTAGC | 1.21
GGTGAGCGCT | 0.998
ATAGGTGGCA | 1.02
TCTCGGCCAA | 2.73
AAACATTCCG | 1.9
GGTTCTCTTA | 1.04
AAGAATCATT | 0.964
TGCGCAGGGC | 1.33
CTTGCACGGC | 1.01
TTTAGCCGGA | 1.07
GTACATTAGA | 1.01
TTCATCGAGT | 1.03
CACGAGTCTA | 1.01
GGGCACGGAG | 1.01
GTTAGAATCC | 1.02
CAGGTAGGGC | 1.01
GGATGATGTC | 0.78
CGAGCCGCCG | 0.987
TTAAATGAGT | 1.06
CTGAGTGGGC | 1
TGCCTTGGCC | 0.993
GGCCACGAAA | 1.03
AGAAAGGGCT | 1
CAATTGAAGG | 1.03
GGAGGAATAG | 4.52

Sequence | switch fluorescence ratio
GGTATCGCGT | 0.966
CGTCGTTCTG | 1.14
TTTACAAGGA | 1.02
AAGGTGGTGT | 1.05
AAATCTATTT | 0.969
ACGGGCGGAT | 0.973
GTTTGATTGA | 1.02
GACACCTGCG | 1.02
CGCGTAGCTT | 0.993
TTTACTGAGC | 1.02
TAGTCATGGG | 0.977
CGTAACCCAC | 1.48
ATATGCGAGC | 1.02
AGTTTACGGG | 1.04
TGTATGGTGC | 0.957
TGTTATCTAC | 1.04
ACCCATTCAC | 1.17
TTCAGGGGAT | 0.999
GGGTACTCTC | 1.04
AAGGCCGTCA | 1
ATGAATTGTG | 1.03
ATATTATCTT | 0.956
GTTGCAATGT | 1.19
CCTTGTTAG | 0.997
AAAACCATTA | 1.03
AGATCACGGG | 0.968

Sequence | switch fluorescence ratio
GTATCCCTGT | 0.977
GCAACGGCAT | 1.03
GCTAACTCGC | 1.16
TAGGTGAGCT | 1.06
TTCAAGGGAT | 0.967
CAGATGGCTT | 1.03
GTGCGTAGTT | 1.01
CATTTGGGGA | 0.994
GGATAAAGAG | 0.965
TATTCTATCC | 1.01
GGTGTCTAAC | 0.987
TGGTATTGGA | 1.03
ATGGTCGAAC | 0.953
AGACATGGCG | 1.08
TTCCACAGCT | 1.8
GGACTCTCGC | 1.07
TGGTTTACCT | 0.959
ATCCCATGGC | 1.03
ATATTGTGGT | 1.02
CAGTATGTCT | 0.956
AAGTCCCGGG | 0.943
TCTGAGTGTA | 0.956
GTTTCCTCCG | 5.33
TAAAGGGATA | 1.02
CGTGTGTCTA | 0.986
GTAAGGAACG | 0.985

Sequence | switch fluorescence ratio
GACCAGGGCA | 1.08
GACGCGGTTG | 1.04
TATGAGTGTA | 1.02
GGCATGGTCT | 0.954
ACGGACTCTC | 1.26
TTTCATTCAT | 0.969
GCAGGCCCAG | 0.991
GGTATGATAC | 1.04
AAGGTCTCTG | 1
GGCTATAGTG | 1
ATACACCTCA | 1.11
ATGTCCGACG | 1.12
ACCCCTTAGC | 1.14
TAGTAAATTC | 0.97
TCGTTCTTGA | 1.03
GGTAGAGTTC | 1.03
GGACCCAGAG | 0.974
GGTTAGTTA | 1
GATAGTCCGT | 1.05
TAATGAGATA | 1.04
AACCGAAAA | 1.05
TTTGCAGTCA | 1
GAGAATTACG | 1.01
GTTCAATTAT | 0.985
GGCAATTCGT | 1.14
